The list shows a part of the results. The full chains were built here from the parent and the listed change. Inactive controls read about 0.05.
B1: TEV protease; numbered along this chain (parent)
chain: MGESLFKGPRDYNPISSSICHLTNESDGHTTSLYGIGFGPFIITNKHLFRRNNGTLVVQSLHGVFKVKDTTTLQQHLVDGRDMIIIRMPKDFPPFPQKLKFREPQREERICLVTTNFQTKSMSSMVSDTSCTFPSGDGIFWKHWIQTKDGQCGSPLVSTRDGFIVGIHSASNFTNTNNYFTSVPKNFMELLTNQEAQQWVSGWRLNADSVLWGGHKVFMVKPEEPFQPVKEATQL

Variants of: B1
Experiment: raw area under fraction-flipped curve 0-4 h after induction (AUC4h, not background-subtracted), DNA-recorder readout of cleavage of the substrate (dimensionless); higher = more cleavage of the substrate by the protease variant
Conditions: temperature: 34 °C; time window: 0-4 h after rhamnose induction
Description: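 In vivo DNA recorder in E. coli TOP10(DE3) ΔrhaA at 34 °C. Each TEVp single-site mutant (parent TEVp 0) is paired with a single-site variant of the 7-mer TEVs (canonical ENLYFQ|S). The substrate sits between flexible linkers in a Bxb1-sfGFP-TEVs-SsrA fusion, so cleavage stabilises Bxb1 and speeds flipping of a recombination array, read by NGS. The value is the raw area under the fraction-flipped curve over 0-4 h after rhamnose induction (AUC4h), with ≥20 reads per time point. It is not background-subtracted; inactive controls average about 0.047.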
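Further: Bxb1 expression induced with 0.2% (w/v) L-rhamnose at OD600 near 0.5, cultures sampled hourly, flipped fraction per protease–substrate barcode pair counted by paired-end Illumina sequencing.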

Row | Variant | area with substrate ENLYFQC | area with substrate ENLYFQD | area with substrate ENLYFQL | area with substrate ENLYFQN | area with substrate ENLYFQQ | area with substrate ENLYFQR | area with substrate ENLYFQS | area with substrate ENLYFQT | area with substrate ENLYFQV | area with substrate ENLYFQY
1 | N116W | 0.103 | 0.0823 | 0.0609 | 0.0805 | 0.0742 | 0.051 | 0.095 | 0.0948 | 0.0694 | 0.0671
2 | D11T | 0.145 | – | – | – | – | – | 0.108 | – | – | –
3 | Q74P | 0.14 | – | – | – | – | – | 0.105 | – | 0.0712 | –
4 | Q197R | 0.1 | 0.0678 | – | – | – | 0.0663 | 0.086 | – | 0.056 | –
5 | Q197I | 0.145 | – | – | – | – | 0.0805 | 0.108 | 0.0358 | – | –
6 | Q118W | 0.114 | – | – | – | – | – | 0.104 | 0.0623 | – | 0.0827
7 | K100D | 0.138 | – | – | 0.074 | 0.0664 | 0.0656 | 0.102 | – | – | 0.0665
8 | V217E | 0.0468 | 0.0636 | 0.0611 | 0.0517 | – | 0.0503 | 0.0602 | – | – | –
9 | N193Q | 0.0882 | – | – | 0.0676 | – | 0.0517 | 0.0901 | 0.0549 | – | 0.0752
10 | N193Y | 0.0882 | – | – | – | – | 0.0537 | 0.0769 | – | – | –
11 | W141F | 0.0771 | 0.0731 | – | 0.0755 | – | – | 0.0842 | 0.0543 | 0.0718 | –
12 | W203S | 0.0655 | 0.0787 | 0.0941 | – | – | 0.0526 | 0.064 | – | – | 0.0559
13 | K7H | 0.141 | 0.0768 | – | – | – | 0.0657 | 0.107 | – | – | –
14 | Q97W | 0.119 | – | – | – | – | – | 0.0975 | – | 0.0732 | 0.072
15 | S182E | 0.0658 | 0.0944 | 0.0533 | – | – | 0.0579 | 0.0791 | 0.0436 | – | –
16 | T159K | 0.104 | – | 0.0555 | – | – | 0.0407 | 0.0919 | – | 0.0701 | 0.0799
17 | E3V | 0.17 | – | 0.0605 | 0.0865 | – | 0.0561 | 0.155 | 0.0555 | – | –
18 | E3D | 0.134 | – | – | – | – | 0.0519 | 0.117 | – | 0.0624 | 0.0792
19 | E195T | 0.119 | – | – | – | – | – | 0.0962 | 0.0558 | – | –
20 | E195S | 0.0893 | – | – | 0.0698 | – | 0.0627 | 0.0979 | – | – | –

Row | Variant | area with substrate ENLYFQC | area with substrate ENLYFQD | area with substrate ENLYFQL | area with substrate ENLYFQN | area with substrate ENLYFQQ | area with substrate ENLYFQR | area with substrate ENLYFQS | area with substrate ENLYFQT | area with substrate ENLYFQV | area with substrate ENLYFQY
21 | K66A | – | 0.0642 | – | 0.0685 | – | 0.0555 | 0.11 | – | – | –
22 | F65I | 0.105 | – | – | 0.0775 | – | – | 0.0825 | 0.0585 | – | 0.0731
23 | G166K | 0.0506 | 0.0721 | – | – | – | – | 0.053 | – | 0.0408 | –
24 | G214W | 0.0679 | 0.103 | – | – | – | 0.0377 | 0.0694 | – | – | –
25 | G214E | – | 0.0523 | – | 0.085 | – | 0.0444 | 0.0875 | 0.0634 | – | 0.0561
26 | S201C | 0.12 | 0.0512 | 0.0579 | 0.074 | – | 0.0678 | 0.0987 | 0.0594 | – | 0.0882
27 | S201H | 0.0814 | – | – | – | – | 0.0399 | 0.091 | 0.0645 | 0.066 | –
28 | E108G | 0.0893 | – | – | – | – | 0.0424 | 0.0765 | 0.0598 | – | –
29 | Q59R | 0.118 | – | – | 0.0959 | – | 0.0629 | 0.112 | 0.0434 | 0.0641 | –
30 | S124Y | 0.0646 | – | 0.0586 | – | – | 0.0737 | 0.0919 | 0.0877 | 0.0536 | –
31 | H143N | 0.0923 | – | – | – | – | – | 0.0836 | – | 0.0519 | –
32 | L190N | – | 0.0746 | – | 0.0707 | – | 0.0571 | 0.0895 | 0.0435 | – | –
33 | M188R | 0.101 | 0.0535 | 0.0481 | 0.0598 | – | 0.0559 | 0.0952 | – | 0.0522 | –
34 | K185V | – | 0.0707 | 0.0855 | – | – | 0.0642 | 0.102 | 0.0459 | 0.0315 | –
35 | K185A | 0.115 | – | 0.0766 | – | – | 0.0539 | 0.106 | 0.0552 | 0.0615 | 0.0788
36 | P222L | 0.0848 | – | – | 0.0622 | – | – | 0.0878 | – | 0.066 | –
37 | P93W | 0.0852 | – | – | – | – | – | 0.0936 | – | – | –
38 | G35S | 0.0764 | – | – | – | – | 0.0327 | 0.0777 | – | – | –
39 | L99K | 0.0804 | – | – | – | 0.0533 | – | 0.0766 | – | – | –
40 | L99E | 0.0986 | – | – | – | – | 0.0542 | 0.0763 | – | – | 0.0601

Same assay, conditions: temperature: 34 °C; time window: 0-4 h after rhamnose induction

Row | Variant | area with substrate ENLYFQG | area with substrate ENLYFQH | area with substrate ENLYFQI | area with substrate ENLYFQW | area with substrate ENLYFQK | area with substrate ENLYFQF | area with substrate ENLYFQM | area with substrate ENLYFQE | area with substrate ENLYFQP
41 | D11T | 0.0854 | 0.0767 | 0.0534 | 0.0621 | – | – | – | – | –
42 | Q74P | 0.0861 | – | – | – | 0.0597 | – | – | – | –
43 | Q197R | 0.0965 | – | 0.0563 | – | – | – | – | – | –
44 | Q197I | – | – | – | 0.0727 | – | 0.0954 | 0.0849 | – | –
45 | Q118W | – | – | 0.0776 | 0.0851 | 0.0519 | – | 0.0837 | 0.057 | –
46 | K100D | – | – | – | 0.0716 | – | 0.072 | 0.102 | – | –
47 | V217E | 0.0635 | – | 0.0486 | – | 0.0704 | – | 0.0427 | – | –
48 | N193Q | 0.0987 | – | 0.0646 | – | – | – | 0.0733 | – | –
49 | N193Y | 0.044 | 0.0654 | 0.0498 | – | – | – | – | – | –
50 | W141F | 0.0897 | – | 0.0432 | 0.0537 | – | – | 0.081 | – | –
51 | W203S | – | – | – | 0.0529 | 0.0543 | – | 0.0681 | – | –
52 | K7H | – | – | – | 0.0725 | – | – | – | – | –
53 | Q97W | 0.104 | – | 0.0537 | – | 0.0591 | 0.0779 | – | – | –
54 | S182E | 0.0325 | – | – | 0.0557 | – | – | 0.0675 | – | –
55 | T159K | – | – | – | – | 0.0552 | – | 0.0804 | 0.0567 | 0.0696
56 | E3V | 0.137 | – | 0.0442 | 0.088 | – | – | 0.113 | – | 0.0838
57 | E3D | 0.128 | – | 0.0579 | 0.0855 | 0.0653 | – | – | 0.06 | 0.07
58 | E195T | – | – | – | – | – | 0.0578 | 0.0664 | 0.0713 | –
59 | E195S | – | – | 0.0608 | – | – | 0.0614 | – | – | –
60 | K66A | – | – | – | – | – | – | 0.127 | – | –

Row | Variant | area with substrate ENLYFQG | area with substrate ENLYFQH | area with substrate ENLYFQI | area with substrate ENLYFQW | area with substrate ENLYFQK | area with substrate ENLYFQF | area with substrate ENLYFQM | area with substrate ENLYFQE | area with substrate ENLYFQP
61 | F65I | – | 0.0734 | 0.0648 | – | – | – | – | – | –
62 | G166K | – | – | 0.0487 | 0.0458 | – | 0.0598 | 0.0588 | – | 0.0355
63 | G214W | – | 0.0589 | – | – | – | – | – | – | –
64 | G214E | 0.137 | – | 0.0529 | – | – | – | – | – | 0.0531
65 | S201C | 0.0951 | 0.0748 | 0.0556 | 0.0598 | – | – | 0.0864 | – | 0.0719
66 | S201H | 0.0559 | – | 0.0589 | 0.0611 | 0.077 | – | 0.0909 | – | –
67 | E108G | – | – | 0.0471 | 0.0291 | – | – | 0.0569 | – | –
68 | Q59R | 0.112 | – | 0.0654 | – | – | 0.0668 | – | – | 0.0526
69 | S124Y | 0.0739 | – | 0.0716 | 0.0678 | 0.0767 | 0.0843 | – | – | –
70 | H143N | 0.182 | – | – | – | 0.0272 | – | 0.0673 | 0.0665 | –
71 | L190N | – | – | – | 0.0509 | – | 0.0588 | 0.0763 | – | –
72 | M188R | 0.09 | – | 0.0613 | 0.0584 | – | – | 0.0952 | – | 0.0527
73 | K185V | – | 0.0808 | 0.0668 | – | 0.0443 | – | 0.102 | – | 0.0463
74 | K185A | – | – | – | 0.0637 | – | – | – | – | –
75 | P222L | – | 0.0638 | – | – | 0.0673 | – | – | – | –
76 | P93W | – | – | – | – | – | 0.0958 | – | – | –
77 | G35S | 0.0679 | – | – | – | – | 0.0651 | 0.0775 | – | –
78 | L99K | – | – | – | – | 0.0563 | – | – | – | –
79 | L99E | 0.149 | – | 0.0367 | – | 0.0765 | – | 0.0617 | – | 0.0533

From the supplement of paper PMC12217912
